Measured values published in the RNAGym collection of RNA variant scans (doi:10.1093/nar/gkz1192).
Read counts are not given, so values of variants with three or more changes are uncertain.

B1: CPEB3 Ribozyme (parent)
chain: UAACAGGGGGCCACAGCAGAAGCGUUCACGUCGCAGCCCCUGUCAGAUUCUGGUGAAUCUGCGAAUUCUGCUGUAUAUCUC

Variants of: B1
Assay: self-cleavage, relative activity (ratio to wild type); higher = more cleavage; in vitro, sequencing
Method in brief: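 After error-prone PCR and barcoding, CPEB3 ribozyme mutant libraries were transcribed with T7 RNA polymerase at 37°C for 5 hours, then given 15 min with DNase I before an EDTA stop, and they cleaved during both steps. Reverse transcription with template switching preceded Illumina sequencing. Relative activity divides a variant's cleaved/total read fraction by the unmutated ribozyme's. At least 5 reads were required per variant, and three batches were averaged.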

| Variant | self-cleavage |
| --- | --- |
| UAACAGGGGGCCUCAGCAGAAGCGUUCACGUCGCGGCCCCUGUCGAAUUCUGGUGAAUCUGCGGAUUCUGCUGCAUAUCUC [A13U A35G A45G G46A A64G U74C] | 0.16 |
| UAACAGGGGGCCUCAGCAGAGGCGCUCACGUCGCAGCCCCUGUCAGAUUCUGGUGAAUCAGCGGAUUCUGCUGUAUAUCUC [A13U A21G U25C U60A A64G] | 0.52 |
| UAACAGGGGGCCUCAGCAGGGGCGUCCACAUCGCAGCCCCUGUCAGAUUCUGGUGAAUCUGCGAAUUCAGCUGUAUAUCUC [A13U A20G A21G U26C G30A U69A] | 0.13 |
| UAACAGGGGGCCUCAGCAGUAGCGUUCACGUCGCGGCCCCUGUCAGAUUCCGGUGAAGCUGCGAACUCUGCUGUAUCUCUC [A13U A20U A35G U51C U58G U66C A77C] | 0.14 |
| UAACAGGGGGCCUCAGCAGAAGCGUUCCCGUCGCAGCCCCUGCCAGAUUCUGGUGAAUCUGCGAAUUCUGCUGUAUAUCUC [A13U A28C U43C] | 0.33 |
| UAACAGGGGGCCUCAGCAGGAGCGUUCACGUCGCAGCCCCUGUCAGAUUCUGGUGAAUCUGCGAAUUCCGCUGUAUAUCUC [A13U A20G U69C] | 0.42 |
| UAACAGGGGGCCUCAGCAGUAGCGUUCACGUCGCAGCCCCUGUCAGGUUCUGGUGAAUCUGCGAAUUCUGCUGUAUAUCCC [A13U A20U A47G U80C] | 0.49 |
| UAACAGGGGGCCUCAGCAGAGGCGUUCACGUCGCUGCCCCUGUCAGAUUCUGGUGAAUCCGCGAAUUCUGCCGUAUGUCUC [A13U A21G A35U U60C U72C A77G] | 0.05 |
| UAACAGGGGGCCUCAGCAGGAGCGUUCACGUCGCAGCCCCUGUCAGAUUCUGGUGGAUCUGCGAAUUCUGCUGUAUAUCUC [A13U A20G A56G] | 0.83 |
| UAACAGGGGGCCUCAGCUGAAGCGUUCACGUCGCAGCCCCUGCCAGAUUCUGGUGAAUCUGCGAAUCCUGCUGUAUAUCUC [A13U A18U U43C U67C] | 0.11 |
| UAACAGGGGGCCUCAGCAGAAGCGUUCACGUCGCGGCCCCUGUCAGAUUCUGGUGAGUCUGCGAAUCCUGCUGUAUAUCUC [A13U A35G A57G U67C] | 0.79 |
| UAACAGGGGGCCUCAGCAGGAGCGUUCACGUCGCAGCCCCUGUCGGAUUCUGGUGAAUCUGCGAGUUCUGCUGUAUAUCUC [A13U A20G A45G A65G] | 0.21 |
| UAACAGGGGGCCUCAGCAGAAGCGUUCGCGUCGCAGCUCCUGUCAGAUUCUGGUGAGUCUGCUAAUUCUGCAGUAUGUCUC [A13U A28G C38U A57G G63U U72A A77G] | 0.32 |
| UAACAGGGGGCCUCAGCAGCAGCGUUCACGUCGCAGCCCCUGUCAGAUUCUGGUGAAUCUGCGAGUUCUGCUGCAUAUCUC [A13U A20C A65G U74C] | 0.18 |
| UAACAGGGGGCCUCAGCAGGAGCGUUCACGUCGCGGCCCCUGUCAGAUUCUGGUGAAUCUGCGAGUUCUGCUGUAUAUCUC [A13U A20G A35G A65G] | 0.88 |
| UAACAGGGGGCCUCAGCAGAAGCGUUCGCGUCGCAGCCCCUGCCAGAUUCUGGUGAAUCUGUGAAUUCUGCCGUAUAUCUC [A13U A28G U43C C62U U72C] | 0.08 |
| UAACAGGGGGCCUCAGCAGAAGCGUUCUCGUCGCAGCCCCUGUCAGAUUCUGGUGAAUCUGCGGAUUGUGCUGUAUAUCUC [A13U A28U A64G C68G] | 0.15 |

| Variant | self-cleavage |
| --- | --- |
| UAACAGGGGGCCUCAGCAGAAGCGUUCACGUCGCGGCCCCCGUCAGACUCUGGUGGAUCUGCGAAUUCUGCUGCAUAUCUC [A13U A35G U41C U48C A56G U74C] | 1.09 |
| UAACAGGGGGCCUCAGCAGGAGCGUUCACGUCGCAGCCCCUGUCAGAUUCUGGUGAAUCUGCGAACUCUGCUGUAUAUCUC [A13U A20G U66C] | 0.31 |
| UAACAGGGGGCCUCAGCUGAAGCGUCCACGUCGCAGCCCCUGUCAGAUUCUGGUGAAUCUGCGAAUUCUGCUGUAUAUCUC [A13U A18U U26C] | 0.18 |
| UAACAGGGGGCCUCAGCAGGAGCGUUCACGUCGCAGCCCCUGUCAGACCCUGGAGAAUCAGCGAAAUCUGCUGUAUAUCUC [A13U A20G U48C U49C U54A U60A U66A] | 0.09 |
| UAACAGGGGGCCUCAGCUGAAGCGUUCACGUCGCAGCCCCUGUCAGAUUCUGGCGAAUCUGCGAAUUCCGCUGCAUAUCUC [A13U A18U U54C U69C U74C] | 0.32 |
| UAACAGGGGGCCUCAGCAGAAGCGUUCGCGUCGCAGCACCUGUCAGAUUCUGGUGAAUCUGCGAAUUCUGCUGUAUAUCUC [A13U A28G C38A] | 0.09 |
| UAACAGGGGGCCUCAGCAGAAGCGUUCGCGUCGCAGCCCCUGUCGGAUUCUGGUGAAUCUGCGAAUUCUGCUGUAUAUCUC [A13U A28G A45G] | 0.54 |
| UAACAGGGGGCCUCAGCAGUAGCGUACACGUCGCAGCCCCUGUCAGAUUCUGGUGAAUCUGCGAAUUCUGCUGUAUAUCUC [A13U A20U U26A] | 0.11 |
| UAACAGGGGGCCUCAGCAGAGGCGUUCACGUCGCAGCCCCUGUCAGAUUCUGGUGAAUCUGCGAAUUGUGCUGUAUAUCUC [A13U A21G C68G] | 0.19 |
| UAACAGGGGGCCUCAGCUGAAGCGUUCACGUCGCAGCCCCUGUCAGAUUCUGGUGAAUCUGCGAAUACUGCUGUACAUCUC [A13U A18U U67A U76C] | 0.2 |
| UAACAGGGGGCCUCAGCUGGAGCGUUCACGUCGCAGCCCCUGUCAGAUUCUGGUGAAUCUGCGAACUCUGCUGUCUAUCUC [A13U A18U A20G U66C A75C] | 0.19 |
| UAACAGGGGGCCUCAGCAGGAGCGUUCACGUCACAGCCCCUGUCAGAUUCUGGUGAAUCUGCGAAUUCUGCUGUAUAUCUC [A13U A20G G33A] | 0.29 |
| UAACAGGGGGCCUCAGCAGAUGCGUACACGUCGCAGCCCCUGUCAGAUUCUGGUGAACCUGCGGAUUCUGCUGUAUAUCCC [A13U A21U U26A U58C A64G U80C] | 0.06 |
| UAACAGGGGGCCUCAGCAGAGGCGUUCACGUCGCAGCCCCUGUCAGAUCCUGGAGAAUCUGCGAAUUCUGCUGCUUAUCUC [A13U A21G U49C U54A U74C A75U] | 0.18 |
| UAACAGGGGGCCUCAGCAGCAGCGUUCACGUCGCAGCCCCUGUCAGACUCUGGUGAAUCUGCGAAUUCUGCAGUAUAUCUC [A13U A20C U48C U72A] | 0.06 |
| UAACAGGGGGCCUCAGCUGAAGCGUUCACGUCGCAGCCCCUGUCAGAUUCUGGUGAAUCCGCGAAUUCUGCUGUAUAUCUC [A13U A18U U60C] | 0.24 |
| UAACAGGGGGCCUCAGCAGGAGCGUUCACGUCGCAGCCCCUGUCUGAUUCUGGUGAUUCUGCGAAUUCUGCUGUAUAACUC [A13U A20G A45U A57U U78A] | 0.13 |
